Structures can show the parent of a compound that is named as a salt. The list shows a part of the results. Repeats are few or missing, and single values can be far off.
What follows are molecules tested on Beas-2B AQP5-HiBiT reporter cells (assay: AQP5-HiBiT luminescence relative to vehicle (ratio to vehicle); higher = higher AQP5-HiBiT protein abundance). Conditions: 10 µM; 18 h.
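Also: monoclonal Beas-2B line stably carrying CMV promoter-driven AQP5-HiBiT, 5,000 cells per well in 384-well plates, lytic HiBiT plus LgBiT NanoLuc luminescence, FDA-approved drug library screen.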

Compound | AQP5-HiBiT luminescence
OC(Cn1cncn1)(Cn1cncn1)c1ccc(F)cc1F [Fluconazole] | 0.985
Cc1cn([C@H]2C=C[C@@H](CO)O2)c(=O)[nH]c1=O [Stavudine] | 0.973
OCCOCCN1CCN(C(c2ccccc2)c2ccc(Cl)cc2)CC1 (centres undefined) [Hydroxyzine Pamoate] | 1.47
CN(C)[C@@H]1C(O)=C(C(N)=O)C(=O)[C@@]2(O)C(O)=C3C(=O)c4c(O)cccc4[C@@](C)(O)[C@H]3C[C@@H]12 [Tetracycline] | 1.22
NC(=O)OCC(COC(N)=O)c1ccccc1 [Felbamate] | 0.616
CNC(C)C1CCC(N)C(OC2C(N)CC(N)C(OC3OCC(C)(O)C(NC)C3O)C2O)O1 (centres undefined) [Gentamycin sulfate] | 0.512
CN(C)[C@@H]1C(O)=C(C(N)=O)C(=O)[C@@]2(O)C(O)=C3C(=O)c4c(O)cccc4[C@@](C)(O)[C@H]3C[C@@H]12 [Tetracycline hydrochloride] | 1.02
C/C(O)=C(\C#N)C(=O)Nc1ccc(C(F)(F)F)cc1 [Teriflunomide] | 0.65
COc1ccccc1OCC(O)COC(N)=O (centres undefined) [Methocarbamol] | 0.888
COc1cccc2c1C(=O)c1c(O)c3c(c(O)c1C2=O)C[C@@](O)(C(C)=O)C[C@@H]3O[C@H]1C[C@H](N)[C@H](O)[C@H](C)O1 [Daunorubicin hydrochloride] | 1.22
CN[C@H](CC(C)C)C(=O)N[C@H]1C(=O)N[C@@H](CC(N)=O)C(=O)N[C@H]2C(=O)N[C@H]3C(=O)N[C@H](C(=O)N[C@H](C(=O)O)c4cc(O)cc(O)c4-c4cc3ccc4O)[C@H](O[C@H]3C[C@](C)(N)[C@@H](O)[C@H](C)O3)c3ccc(c(Cl)c3)Oc3cc2cc(c3O[C@@H]2O[C@H](CO)[C@@H](O)[C@H](O)[C@H]2O[C@H]2C[C@](C)(NCc3ccc(-c4ccc(Cl)cc4)cc3)[C@@H](O)[C@H](C)O2)Oc2ccc(cc2Cl)[C@H]1O [Oritavancin diphosphate] | 0.401
C[C@@H](O)[C@H]1C(=O)N2C(C(=O)O)=C(SCCNC=N)C[C@H]12 [Imipenem] | 0.742
CC(C)[N+](C)(CCOC(=O)C1c2ccccc2Oc2ccccc21)C(C)C [Propantheline bromide] | 0.829
CC(=O)c1ccc2c(c1)N(CCCN1CCC(CCO)CC1)c1ccccc1S2 [Piperacetazine] | 3.04
CCN[C@@H]1C[C@H](N)[C@@H](O[C@H]2OC(CN)=CC[C@H]2N)[C@H](O)[C@H]1O[C@H]1OC[C@](C)(O)[C@H](NC)[C@H]1O [Netilmicin sulfate] | 1.29
NS(=O)(=O)c1cc2c(cc1C(F)(F)F)NC(Cc1ccccc1)NS2(=O)=O (centres undefined) [Bendroflumethiazide] | 1.89
CCCSc1nc(N[C@@H]2C[C@H]2c2ccc(F)c(F)c2)c2nnn([C@@H]3C[C@H](OCCO)[C@@H](O)[C@H]3O)c2n1 [Ticagrelor] | 0.99
CC1=C(/C=C/C(C)=C/C=C/C(C)=C/C=C/C=C(C)/C=C/C=C(C)/C=C/C2=C(C)CCCC2(C)C)C(C)(C)CCC1 [Beta-Carotene] | 1.41
C[C@]12CCC(=O)C=C1[C@@H]1C[C@@H]1[C@H]1[C@@H]3[C@@H]4C[C@@H]4[C@@]4(CCC(=O)O4)[C@@]3(C)CC[C@@H]12 [Drospirenone] | 0.436
CC(S)C(=O)NCC(=O)O (centres undefined) [Tiopronin] | 1.01

Compound | AQP5-HiBiT luminescence
NCCc1ccc(O)c(O)c1 [Dopamine hydrochloride] | 0.484
OCCN(CCO)c1nc(N2CCCCC2)c2nc(N(CCO)CCO)nc(N3CCCCC3)c2n1 [Dypyridamole] | 0.718
CO/N=C(\C(=O)N[C@@H]1C(=O)N2C(C(=O)OCOC(=O)C(C)(C)C)=C(/C=C\c3scnc3C)CS[C@H]12)c1csc(N)n1 [Cefditoren pivoxil] | 1.38
Cc1cc(C2CCCCC2)n(O)c(=O)c1 [Ciclopirox ethanolamine] | 2.31
CN1CCN(CCCN2c3ccccc3Sc3ccc(Cl)cc32)CC1 [Prochlorperazine] | 1.39
CCCCN1CCCC[C@H]1C(=O)Nc1c(C)cccc1C [Levobupivacaine] | 0.784
CCC(Cc1c(I)cc(I)c(N)c1I)C(=O)O (centres undefined) [Iopanoic acid] | 1
CC(C)c1nc(N(C)S(C)(=O)=O)nc(-c2ccc(F)cc2)c1/C=C/[C@@H](O)C[C@@H](O)CC(=O)O [Rosuvastatin] | 1.04
CNC[C@H](O)c1cccc(O)c1 [Phenylephrine hydrochloride] | 0.617
Cc1nnc(C(C)C)n1C1C[C@H]2CC[C@@H](C1)N2CC[C@H](NC(=O)C1CCC(F)(F)CC1)c1ccccc1 (stereo in doubt) [Maraviroc] | 0.819
CN1CCN(CCCN2c3ccccc3Sc3ccc(Cl)cc32)CC1 [Prochlorperazine Maleate] | 1.63
N#CCC(C1CCCC1)n1cc(-c2ncnc3[nH]ccc23)cn1 (centres undefined) | 0.559
CCCCc1nc(Cl)c(CO)n1Cc1ccc(-c2ccccc2-c2nnn[nH]2)cc1 [Losartan] | 0.707
COc1c(N2C[C@@H]3CCCN[C@@H]3C2)c(F)cc2c(=O)c(C(=O)O)cn(C3CC3)c12 [Moxifloxacin hydrochloride] | 0.747
CCCCC(=O)O[C@]1(C(=O)CO)[C@@H](C)C[C@H]2[C@@H]3CCC4=CC(=O)C=C[C@]4(C)[C@@]3(F)[C@@H](O)C[C@@]21C [Betamethasone 17-valerate] | 0.938
CO/N=C(\C(=O)N[C@@H]1C(=O)N2C(C(=O)O)=C(COC(C)=O)CS[C@H]12)c1csc(N)n1 [Cefotaxime sodium] | 0.903
CCN(CC)CCOC(=O)C1(C2CCCCC2)CCCCC1 [Dicyclomine hydrochloride] | 1.09
CN(C)CC/C=C1/c2ccccc2COc2ccc(CC(=O)O)cc21 [Olopatadine hydrochloride] | 1.1
CC(=O)O[C@@]12CO[C@@H]1C[C@H](O)[C@@]1(C)C(=O)[C@H](O)C3=C(C)[C@@H](OC(=O)[C@H](O)[C@@H](NC(=O)OC(C)(C)C)c4ccccc4)C[C@@](O)([C@@H](OC(=O)c4ccccc4)[C@H]21)C3(C)C [Docetaxel] | 1.77

— the supplement of paper PMC8821664
